The other results are listed elsewhere or left out. Values were computed here from the reads of four pooled replicates and scatter widely.
Molecular target: T1, Pho4 (S. cerevisiae) (UniProt P07270)
T1 sequence: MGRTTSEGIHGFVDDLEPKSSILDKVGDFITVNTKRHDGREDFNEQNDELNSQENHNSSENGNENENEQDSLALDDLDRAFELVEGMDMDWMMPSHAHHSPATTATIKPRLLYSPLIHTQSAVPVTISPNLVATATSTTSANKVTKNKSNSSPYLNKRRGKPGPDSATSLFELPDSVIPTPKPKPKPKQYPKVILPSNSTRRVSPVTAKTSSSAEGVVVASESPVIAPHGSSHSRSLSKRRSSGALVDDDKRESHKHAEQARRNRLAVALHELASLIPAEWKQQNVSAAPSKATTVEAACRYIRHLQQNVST
Assay: relative binding free energy (BET-seq); higher = weaker binding
Settings: reference: library average

Sequence | relative binding free energy [kcal/mol]
ATATGCACGTGCAGGT | -0.07
TTCGTCACGTGTGCGA | 0.06
GGTGCCACGTGAGTCG | 0.27
GTTTTCACGTGAGATT | 0.31
CAGTGCACGTGGCGTG | -0.27
GTAGGCACGTGTGAGC | 0.03
TTTGTCACGTGGCGAT | 0
GTATGCACGTGAAAGT | 0.23
CGTTTCACGTGGATGT | 0.29
ACGCGCACGTGGTGGG | -0.32
ATGTCCACGTGGTATT | -0.04
GGGCACACGTGTGTAG | 0.16
TACCGCACGTGGAGGT | 0.02
GTGGGCACGTGGAATG | 0.12
TGCGTCACGTGATCGG | 0.1
TTGTACACGTGTTCAT | -0.05
ATGTTCACGTGGGCTT | 0.22
GTTTACACGTGTTTGA | 0.26
ATAAACACGTGTGTTT | 0.03
TTAATCACGTGACGTG | 0.11
AGTATCACGTGTGTTC | 0.13
TGTGACACGTGAGCAG | 0.12
TGGATCACGTGGCATG | 0.1

Sequence | relative binding free energy [kcal/mol]
GGAGGCACGTGGGGCT | -0.24
TTATACACGTGCTAGG | 0.09
AATTACACGTGAGTGT | 0.02
CAAGGCACGTGTGGGC | -0.13
GGAAGCACGTGATGGA | 0.09
TTGTTCACGTGGGCGG | 0.23
AGTTTCACGTGGTACA | 0.08
CGGGTCACGTGTTCGG | 0.17
GAATGCACGTGTCGTG | -0.06
TGTTCCACGTGGGTCT | -0.08
AGGTGCACGTGAGAAT | 0.22
ATAGTCACGTGTGTTT | 0.25
AAGTTCACGTGGGTCC | 0.34
TTGAACACGTGTAGTA | 0.04
TTAGGCACGTGGTTCT | -0.17
TTCATCACGTGGATTG | 0.14
ATTTGCACGTGTAGTA | 0.04
AGCGTCACGTGGGTTG | -0.06
TGTCGCACGTGCGTTG | -0.17
TAGCTCACGTGGGCGG | -0.04
AATCTCACGTGGGAGG | 0.31
CGAGTCACGTGTGAGT | 0.19
TGACACACGTGGGGAG | -0.02

Sequence | relative binding free energy [kcal/mol]
AAGGGCACGTGCAGTT | -0.14
TATTCCACGTGTGTTT | -0.03
TGAGGCACGTGCCAGG | -0.16
GTGTTCACGTGACTGT | 0.34
TTTGACACGTGCATTT | -0.01
TGGTGCACGTGGCCGA | -0.11
TTATTCACGTGATATA | 0.27
AGCTGCACGTGTTTGG | 0.14
TGCGTCACGTGTTCGT | 0.03
GTCTTCACGTGAATGG | 0.43
AGCGCCACGTGAGGGG | 0.09
ATTTTCACGTGGAGCG | 0.23
GTTAACACGTGACGGG | 0.12
GAGATCACGTGGATTT | 0.28
CTATGCACGTGAAGTG | 0.13
GTGGACACGTGAGTTA | 0.2
GGAGTCACGTGTCAGT | 0.29
TTATGCACGTGTTAAT | -0.13
TACGGCACGTGTGTGT | -0.04
AGGATCACGTGGGTGG | 0.04
TAATTCACGTGTATAG | 0.05
TACGACACGTGGGGTA | -0.16
GTGTTCACGTGATGCG | 0.15

Sequence | relative binding free energy [kcal/mol]
ATAATCACGTGTAGGG | 0.04
GCGGTCACGTGGGGTG | -0.03
GAGTTCACGTGGTCGC | 0.31
GGCGCCACGTGGAGTA | 0.09
CTTCTCACGTGTGCTT | 0.44
TTTCGCACGTGGGCGT | -0.19
GTGGGCACGTGCAGTA | -0.11
AGGTGCACGTGTGGTG | 0.01
GTTTTCACGTGGGGGC | 0.32
TTTTACACGTGGATGG | 0.12
AGACGCACGTGTTTGA | 0.03
TGTATCACGTGCTTCT | 0.08
GACGTCACGTGGGGAG | -0.06
CGAAGCACGTGGTTGT | -0.1
AAGAGCACGTGCTGGG | -0.23
TTGCGCACGTGTTCGT | -0.13
ATGATCACGTGATTTT | 0.26
TAGCTCACGTGGAGGG | 0.26
GATTTCACGTGTGGGC | 0.37
CTTTTCACGTGGGAGA | 0.21
TGGTTCACGTGGTCTG | 0.16
GGTCTCACGTGGTGTG | 0.24
ATGCGCACGTGTGGCG | -0.18

Sequence | relative binding free energy [kcal/mol]
GTGTTCACGTGGCGAT | 0.24
TGATGCACGTGATTTG | 0.15
TAGGTCACGTGTCGCG | 0.1
GCTCTCACGTGGGGTG | 0.06
CGTAGCACGTGTGTGC | -0.07
GATGTCACGTGGTCGT | 0.13
TAGTCCACGTGGGAGG | 0.02
ATGTCCACGTGGTGAT | -0.02
ATCAGCACGTGGGGGG | -0.09
TGGCACACGTGGGCGG | -0.12
TTTTACACGTGATTCA | 0.13
GATATCACGTGGGTTA | 0.05
TTGGACACGTGGAGGA | -0.01
CTTAGCACGTGTGGGA | -0.04
AAAAACACGTGTGGTG | -0.02
GTTCACACGTGTGTTA | 0.15
GGTTTCACGTGCTAAG | 0.27
GGGTACACGTGAAGCA | 0.37
GTAGTCACGTGCGGTA | -0.2
GTGTCCACGTGAGGCG | 0.18
TGGGTCACGTGTTGCG | 0.13
GAAGGCACGTGTGATG | 0.08
CAGTTCACGTGGGGGC | 0.14

Reference: the BET-seq Pho4 binding data (Le et al. 2018)
